No constants are given. Whether binding was seen depends on the method and setting. Some binding calls cover weakened binding; strength is not graded here.
B1: EN/D mutant (p.Glu2472_Asn2473delinsAsp) of the FLNC fragment containing immunoglobulin-like domains 22-24 (domain or fragment, human, UniProt Q14315 2403-2725, looked up)
chain: SLSDDARRLTVTSLQETGLKVNQPASFAVQLNGARGVIDARVHTPSGAVEECYVSELDSDKHTIRFIPHDGVHSIDVKFNGAHIPGSPFKIRVGEQSQAGDPGLVSAYGPGLEGGTTGVSSEFIVNTLNAGSGALSVTIDGPSKVQLDCRECPEGHVVTYTPMAPGNYLIAIKYGGPQHIVGSPFKAKVTGPRLSGGHSLHETSTVLVETVTKSSSSRGSSYSSIPKFSSDASKVVTRGPGLSQAFVGQKNSFTVDCSKAGTNMMMVGVHGPKTPCEEVYVKHMGNRVYNVTYTVKEKGDYILIVKWGDESVPGSPFKVKVP
notes: human filamin C (FLNC), Uniprot Q14315, residues 2403-2725, with Glu2472 and Asn2473 replaced by Asp (mutation associated with restrictive cardiomyopathy); also called c.7416_7418delGAA; source: recombinant, expressed and purified as described earlier [23]; (ion-exchange and size-exclusion chromatography)
B2: ΔPGL mutant (p.P2643_L2645del) of the FLNC fragment containing immunoglobulin-like domains 22-24 (domain or fragment, human, UniProt Q14315 2403-2725, looked up)
chain: SLSDDARRLTVTSLQETGLKVNQPASFAVQLNGARGVIDARVHTPSGAVEECYVSELDSDKHTIRFIPHENGVHSIDVKFNGAHIPGSPFKIRVGEQSQAGDPGLVSAYGPGLEGGTTGVSSEFIVNTLNAGSGALSVTIDGPSKVQLDCRECPEGHVVTYTPMAPGNYLIAIKYGGPQHIVGSPFKAKVTGPRLSGGHSLHETSTVLVETVTKSSSSRGSSYSSIPKFSSDASKVVTRGSQAFVGQKNSFTVDCSKAGTNMMMVGVHGPKTPCEEVYVKHMGNRVYNVTYTVKEKGDYILIVKWGDESVPGSPFKVKVP
notes: human filamin C (FLNC), Uniprot Q14315, residues 2403-2725, with deletion of the tripeptide 2643-PGL-2645 (mutation associated with restrictive cardiomyopathy); also called ΔPGL FLNC; c.7927_7935del; source: recombinant, expressed and purified as described earlier [23]; (ion-exchange and size-exclusion chromatography)
B3: wild-type (WT) C-terminal fragment of human filamin C (FLNC) containing immunoglobulin-like domains 22-24 (domain or fragment, UniProt Q14315 2403-2725, looked up)
chain: SLSDDARRLTVTSLQETGLKVNQPASFAVQLNGARGVIDARVHTPSGAVEECYVSELDSDKHTIRFIPHENGVHSIDVKFNGAHIPGSPFKIRVGEQSQAGDPGLVSAYGPGLEGGTTGVSSEFIVNTLNAGSGALSVTIDGPSKVQLDCRECPEGHVVTYTPMAPGNYLIAIKYGGPQHIVGSPFKAKVTGPRLSGGHSLHETSTVLVETVTKSSSSRGSSYSSIPKFSSDASKVVTRGPGLSQAFVGQKNSFTVDCSKAGTNMMMVGVHGPKTPCEEVYVKHMGNRVYNVTYTVKEKGDYILIVKWGDESVPGSPFKVKVP
notes: human filamin C (FLNC), Uniprot Q14315, immunoglobulin-like domains 22-24, amino acid residues 2403-2725; Dimer by SEC and cross-linking; also called WT FLNC; WT FLNC fragment; source: recombinant, expressed and purified as described earlier [23]; (ion-exchange and size-exclusion chromatography)
B4: Wmut (p.W2710X) mutant of the FLNC fragment containing immunoglobulin-like domains 22-24 (domain or fragment, UniProt Q14315 2403-2709)
chain: SLSDDARRLTVTSLQETGLKVNQPASFAVQLNGARGVIDARVHTPSGAVEECYVSELDSDKHTIRFIPHENGVHSIDVKFNGAHIPGSPFKIRVGEQSQAGDPGLVSAYGPGLEGGTTGVSSEFIVNTLNAGSGALSVTIDGPSKVQLDCRECPEGHVVTYTPMAPGNYLIAIKYGGPQHIVGSPFKAKVTGPRLSGGHSLHETSTVLVETVTKSSSSRGSSYSSIPKFSSDASKVVTRGPGLSQAFVGQKNSFTVDCSKAGTNMMMVGVHGPKTPCEEVYVKHMGNRVYNVTYTVKEKGDYILIVK

Chains of the proteins cited; added tags and fusions are not shown. Lines headed by an entry give the natural chain unless they say otherwise; changes in a name come on top. Residues count along the entry.
UniProt Q9UBY9: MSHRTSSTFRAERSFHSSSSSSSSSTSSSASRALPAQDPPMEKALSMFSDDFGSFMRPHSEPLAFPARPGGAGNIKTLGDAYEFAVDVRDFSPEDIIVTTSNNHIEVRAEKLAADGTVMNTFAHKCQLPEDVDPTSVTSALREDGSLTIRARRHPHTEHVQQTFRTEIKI
α-crystallin domain of HspB7 (AcdB7) containing residues 77-155: residues 77-155 of Q9UBY9

Experiments:
[1] = biological target: α-crystallin domain of HspB7 (AcdB7) containing residues 77-155 (UniProt Q9UBY9); test: cross-linking; isolated proteins or equimolar mixture, 30 min at 30 °C in 25 mM HEPES/NaOH pH 7.4, 100 mM NaCl, 2 mM DTT, then 0.0125% glutaraldehyde 30 min at 30 °C; SDS gel and anti-HspB7 immunoblot; both purified
[2] = biological target: T1, small heat shock protein HspB7 (full-size) (UniProt Q9UBY9 1-170); test: as above
T1 construct: small heat shock protein HspB7, full-size; also called full-size HspB7; full-length HspB7; source: recombinant, expressed and purified as described earlier [25,34]

[3] = biological target: α-crystallin domain of HspB7 (AcdB7) containing residues 77-155 (UniProt Q9UBY9); test: SEC; equimolar mixture of FLNC fragment and AcdB7 (30 µM each) or full-size HspB7, preincubated 30 min at 30 °C, Superdex 200 10/300, 0.5 mL/min, 50 mM Na-phosphate pH 7.4, 150 mM NaCl, 2 mM DTT, room temperature; peak fractions analysed by SDS gel; both purified
[4] = biological target: T1, small heat shock protein HspB7 …; test: as above
[5] = biological target: α-crystallin domain of HspB7 (AcdB7) containing residues 77-155 (UniProt Q9UBY9); test: native gel or EMSA; fixed HspB7 (25 or 30 µM) or AcdB7 (35 µM) in 20 mM Tris-acetate pH 7.6, 100 mM NaCl titrated with 0-120 µM FLNC fragment, 30 min at 30 °C; native 12.5% polyacrylamide gel, Tris-glycine pH 8.6; band intensities, semi quantitative, apparent affinity; both purified
[6] = biological target: T1, small heat shock protein HspB7 …; test: as above

Binder	binding [1]	binding [2]	binding [3]	binding [4]	binding [5]	binding [6]
B1	binds	binds	binds	binds	–	–
B2	binds	binds	binds	binds	binds weakly	binds weakly
B3	binds	binds	binds	binds	–	–
B4	–	no binding	–	no binding	–	no binding (tested: 0-120 µM FLNC fragment)

Reference: article PMC12193154, “Effect of Mutations in the C-Terminal 22–24 Domains of Filamin C Associated with Cardio- and Myopathies on Its Interaction with Small Heat Shock Protein HspB7” (International Journal of Molecular Sciences, 2025)
